The results in this text go back to PubChem BioAssay AID1508642 (National Center for Advancing Translational Sciences (NCATS), 2021).

The whole screen tested about 43,000 compounds, of which about 200 (0.47%) were called active. About 12% were inconclusive and are not listed. Calls follow the shape of the dose curve; as a rule, active = well fitted cell-killing curve with a large enough effect; inconclusive = small, poorly fitted or top-dose-only effect, or effect the other way; inactive = flat fitted curve, though single readings scatter. The list shows a part of the results.
% is scaled to controls: 0 for no effect and ±100 for the full control effect; potency is read from the fitted curve at half-maximal effect.

This test is described as follows: Cell viability qHTS assay in S16 Pmp22-F2sN cells. Also: nearly all actives have a fitted effect of over 65% in size. The conditions noted are these: S16 Pmp22-F2sN Schwann cells (luciferase reporters placed in the Pmp22 gene) viability, CellTiter-Glo, 24 h; series mostly up to 57.5 µM; activity change, negative = cytotoxicity: at the top concentration. Summed up:
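S16 Schwann cells carrying the Pmp22-F2sN reporter, seeded in 1536-well format, were exposed to library compounds for 24 h at 37C. Viability was read as CellTiter-Glo luminescence after 15 min at room temperature.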
Regarding `COc1ccc(S(=O)(=O)c2nnn(-c3ccc(C)c(Cl)c3)c2C)cc1`, the “activity change, negative = cytotoxicity” value is inactive: -1.48%.

`Cc1cccc(NC(=O)C(=O)NCCc2csc(-c3ccc(C(F)(F)F)cc3)n2)c1C`: the “activity change, negative = cytotoxicity” value is inactive: 6.09%.

For the molecule `O=C(CC1N=C2c3ccccc3N=C(SCC(=O)Nc3ccccc3F)N2C1=O)NCc1cccs1` (stereo not drawn), the “activity change, negative = cytotoxicity” value was inactive: -2.68%. The same measure, in the same setting: then `CC1=Nc2cc(C(=O)NC(C)C)ccc2Sc2ccc(C)cc21`, with inactive: -19.3%. Same read-out and setting: as for `Fc1ccc(Br)cc1C1C=C(c2ccc(Br)cc2)Nc2nnnn21` (stereo not drawn), the figure is inactive: -7.24%.

For the molecule `Cc1ccc(CNC(=O)CCCN2C(=O)COc3ccc(C)cc32)cc1`, the “activity change, negative = cytotoxicity” value is inactive: -33%. As to `COc1ccc2oc(-c3cccc(NC(=O)c4sc5c([N+](=O)[O-])cccc5c4Cl)c3)nc2c1`, the “activity change, negative = cytotoxicity” value is inactive: 2.63%. For the molecule `O=c1c2sc3ccccc3c2n(Cc2cccc(C(F)(F)F)c2)c(=O)n1Cc1ccc(F)cc1`, the “activity change, negative = cytotoxicity” value was inactive: 1.65%. For `O=c1oc2ccccc2cc1-c1cn2cc(Cc3ccc(Br)cc3)sc2n1`, the “activity change, negative = cytotoxicity” value was inactive: -0.671%. As for `Cc1cccc(C)c1Nc1c(-c2ccc(O)cc2)nc2sccn12`, the “activity change, negative = cytotoxicity” value was inactive: 15.2%. With `CCOc1ccc(S(=O)(=O)NCCc2sc3nc(-c4ccc(C)cc4)nn3c2C)cc1`, the Potency was active: 20 µM. As to `Cc1cc(C)cc(-n2ccn(Cc3ccc(F)cc3)c(=O)c2=O)c1`, the “activity change, negative = cytotoxicity” value is inactive: -10.1%. For `CCCn1c(CCC(=O)Nc2ccccc2OC)nc2cccnc21`, the “activity change, negative = cytotoxicity” value is inactive: 5.58%. For the molecule `COc1ccc(NC(=O)CC2C(=O)N(c3cccc(OC)c3)C(=O)N2Cc2ccc3c(c2)OCO3)cc1` (stereo not drawn), the “activity change, negative = cytotoxicity” value is inactive: -1.62%. On the same count and under the same terms, then `CCOc1ccc2nc(N3CCCC(C(=O)NCc4ccccc4OC)C3)sc2c1` (stereo not drawn), with inactive: 4.72%; and `Cc1ccc(Cl)cc1NC(=O)C1CCN(c2nc3ccccc3n3cccc23)CC1`, with inactive: 4.56%; and `CCCn1c2ccccc2c2cnn(CC(=O)NCCc3ccc(C)cc3)c(=O)c21`, with inactive: -4.05%. As to `CCCCOC(=O)c1ccc(Nc2nnc(-n3nc(C)cc3C)c3ccccc23)cc1`, the “activity change, negative = cytotoxicity” value is inactive: -15.1%. On to `Cc1nnc2c3ccccc3nc(Nc3cccc(O)c3)n12`, for which the “activity change, negative = cytotoxicity” value is inactive: -8.07%. Same read-out and setting: as for `COc1ccc(-c2noc(CSc3nc(N)cc(=O)[nH]3)n2)cc1OC`, the figure is inactive: 5.12%.

Turning to `O=C(NC1CC(=O)N(c2ccc(Cl)cc2)C1)c1ccc(S(=O)(=O)N2CCOCC2)cc1` (stereo not drawn), the “activity change, negative = cytotoxicity” value was inactive: -1.35%. As to `COc1cc(C2C(C(=O)Nc3ccccc3)=C(C)Nc3nnnn32)cc(OC)c1OC` (stereo not drawn), the “activity change, negative = cytotoxicity” value is inactive: -8.09%. With `COc1ccc(-c2noc(CN(C(=O)c3cc(OC)c(OC)cc3OC)C(C)C)n2)cc1`, the “activity change, negative = cytotoxicity” value was inactive: 11.8%. Regarding `COCCn1c(=O)[nH]c2cc(C(=O)Nc3cccc(C(C)=O)c3)ccc2c1=O`, the “activity change, negative = cytotoxicity” value is inactive: 11.4%. With `COc1ccc(Nc2oc(/C=C/c3ccc(OC)c(OC)c3)nc2C#N)cc1`, the “activity change, negative = cytotoxicity” value is inactive: 0.442%. Same read-out and setting: as for `Cc1ccc(CN2CCCn3nc(C(=O)NCC(C)c4ccccc4)cc3C2=O)cc1` (stereo not drawn), the figure is inactive: -13.7%; as for `CCc1nn(CC(=O)NCCCOC)c(=O)c2cc3ccccc3n12`, inactive: -1.8%. On the same count and under the same terms, as for `Cc1cc(C)c2oc(C(=O)Nc3ccc(S(=O)(=O)Nc4nccc(C)n4)cc3)cc(=O)c2c1`, the figure is inactive: 3.44%; as for `CCOc1ccc(S(=O)(=O)Nc2cc(Cl)ccc2OC)c2cccnc12`, inactive: -16.6%; as for `Cc1ccc(/C=C/c2onc(C)c2S(=O)(=O)N2CCC(C(=O)Nc3cc(F)ccc3F)CC2)cc1`, inactive: 11.8%. Same read-out and setting: then `O=C(Nc1ccc(Cl)c(C(F)(F)F)c1)C(Cc1ccccc1)NS(=O)(=O)c1cccc2nsnc12` (stereo not drawn), with inactive: -20.8%.

Consider `CCc1cc2c(cc3c(=O)n(CC(=O)NCCc4ccccc4)ncn32)s1`, for which the “activity change, negative = cytotoxicity” value was inactive: 0.233%. On the same count and under the same terms, as for `CCC(Sc1nc2ncccc2o1)C(=O)Nc1cccc(C)c1` (stereo not drawn), the figure is inactive: 5.86%. Same read-out and setting: then `COc1ccc2oc(=O)c(-c3nc(-c4ccc(C)c(C)c4)cs3)cc2c1`, with inactive: 6.49%. Same read-out and setting: then `Cc1ccc(C)c(NC(=O)c2ccc3c(c2)CCN3S(=O)(=O)c2ccccc2)c1`, with inactive: 2.76%. With `O=C(CSc1nccn1Cc1ccc(Cl)cc1)Nc1ccc2c(c1)OCO2`, the “activity change, negative = cytotoxicity” value was inactive: 0.98%. Same read-out and setting: then `COc1ccc(NC(=O)C2CCCN(S(=O)(=O)c3c(C)[nH]c(=O)[nH]c3=O)C2)cc1Cl` (stereo not drawn), with inactive: 3.69%; and `COc1cccc(-n2cc(C(=O)NCc3ccc(C)cc3)c3ccccc3c2=O)c1`, with inactive: -5.37%. As for `O=C(CN1N=C(c2ccccc2)CCC1=O)NCc1ccc(F)cc1Cl`, the “activity change, negative = cytotoxicity” value is inactive: -1.09%.

With `CCc1ccc(C2c3c(-c4ccccc4)n[nH]c3C(=O)N2c2ccc(C(=O)O)cc2)cc1` (stereo not drawn), the “activity change, negative = cytotoxicity” value was inactive: 12.9%.

Turning to `CCCN(CCC)CCCNC(=O)c1cn(C)c2ccc(S(=O)(=O)N3CCOCC3)cc2c1=O`, the “activity change, negative = cytotoxicity” value was inactive: 7.54%. The same measure, in the same setting: then `CCn1cc(C(=O)NCCc2ccccc2)c(=O)c2cc(S(=O)(=O)N3CCc4ccccc4C3)ccc21`, with inactive: 3.52%; and `COc1ccc(-c2cc(C)no2)cc1S(=O)(=O)N1CCOc2ccc(Cl)cc21`, with inactive: -0.798%.

On to `COC(=O)c1ccc2c(=O)n(CCCCCC(=O)NCc3ccc(OC)cc3)c(=O)[nH]c2c1`, for which the “activity change, negative = cytotoxicity” value was inactive: -19.9%. Still for that read-out and setting: then `COc1ccc(CCNc2nc(SCc3cccc(F)c3)nc3ccccc23)cc1OC`, with inactive: 13.7%; and `CCC(C)NC(=O)CN1C(=O)c2cccnc2Oc2ccc(C)cc21` (stereo not drawn), with inactive: 0.378%. For the molecule `CC(C)c1ccc(NC(=O)CN2C(=O)COc3ccc(S(=O)(=O)N4CCOCC4)cc32)cc1`, the “activity change, negative = cytotoxicity” value is inactive: 5.63%. As for `Cc1ccccc1C(=O)n1nc(-c2ccco2)nc1NCc1cccs1`, the “activity change, negative = cytotoxicity” value was inactive: 7.46%.
